Data: PubChem BioAssay AID686978 (National Center for Advancing Translational Sciences (NCATS), 2013)
Among all 420,000 compounds or so, about 64,000 (15%) were called active. The inconclusive results got no clear call from the source; some entries with a clear call stand among them for comparison. Calls come from the whole dose curve; as a rule, active = well fitted inhibition curve with a large enough effect; inconclusive = small, poorly fitted or top-dose-only effect; inactive = flat fitted curve, though single readings scatter. No potency is given beside an inconclusive call; the fits are too rough.

experiment: qHTS for Inhibitors of human tyrosyl-DNA phosphodiesterase 1 (TDP1): qHTS in cells in absence of CPT; settings: DT40 Tdp1-/- hTDP1 cells, no CPT, ATP luminescence, 48 h; activity change, negative = growth inhibition: at 46.2 µM (top of the series) unless noted; note: nearly all actives have a fitted effect of over 55% in size
Outline: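 Compound effects on proliferation are scored in DT40 Tdp1-/-;hTDP1 cells in the absence of CPT. ATP levels (CellTiter-Glo luminescence) are recorded after a ≥48 hr, 37 °C incubation.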
% is set by controls: 0 for no effect and ±100 for the full control effect; potency is the fitted concentration of half-maximal effect; tags give direction and shape of the fitted curve.

Compound | Potency | activity change, negative = growth inhibition
CN1/C(=c2/s/c(=C3/C(=O)N(c4ccccc4)NC3=Nc3ccccc3)n(C)c2=O)C(C)(C)c2ccccc21 | active: 11.6 µM | –
Cc1ccc(Nc2nc(N)nc(CSC(=S)N3CCOCC3)n2)c(C)c1 | active: 25.9 µM | –
Cc1ccc(-n2ncc(C(=O)NCCCN3CCc4ccccc4C3)c2C2CCN(C(=O)OC(C)(C)C)CC2)c(C)c1 | active: 20.6 µM | –
O=C(CSc1cccc[n+]1[O-])Nc1ccc2c(c1)OCO2 | inconclusive [inhibitor, single point] | –
Cc1ccc(OCCCC(=O)Nc2cc(Cl)ccc2-n2cncn2)cc1 | inconclusive [inhibitor, single point] | –
O=S(=O)(Nc1ncccn1)c1ccc(-n2cnnn2)cc1 | inconclusive [inhibitor, full curve, poor fit] | –
COc1cccc(-c2cc3nc(NCCOc4ccccc4Cl)n(C)c(=O)c3s2)c1 | inconclusive [inhibitor, single point] | –
COc1ccc(F)cc1C(=O)C1CCCN(Cc2c[nH]c3ccccc23)C1 (centres undefined) | active: 4.61 µM | –
CCCS(=O)(=O)NC(=O)C1(C)CCN(C(=O)c2ccc(OC)cc2OC)C1 (centres undefined) | – | inactive: 0.233%
Cc1ccc2nc(N(CCN(C)C)C(=O)c3ccc4ccccc4c3)sc2c1 | inconclusive [inhibitor, single point] | –
C=CCn1c(CSc2nc3ccccc3s2)nnc1SCC(=O)NCc1ccco1 | – | inactive: 1.91%
CCCCc1ccc(NC(=O)CSC2=C(C#N)C(c3ccco3)C3=C(CCCC3=O)N2)cc1 (centres undefined) | inconclusive [inhibitor, single point] | –
COCCNc1nc(NCC2CCCCC2)c2sc(-c3ccccc3)cc2n1 | active: 8.2 µM | –
O=C(NC(=S)NCc1ccccc1)c1ccccc1[N+](=O)[O-] | inconclusive [inhibitor, single point] | –
O=C(Nc1ccnn1C1CCN(Cc2ccc(CO)o2)CC1)c1cccc(F)c1 | – | inconclusive: -24.1% [inhibitor]
Cc1ccc2c(C)cc(=S)[nH]c2c1 | inconclusive [inhibitor, single point] | –
COc1ccc(-c2nc3cccc(C)n3c2NCc2ccco2)cc1OC | inconclusive [inhibitor, single point] | –
COC(=O)c1cc2nc(-c3ccc(OC)c(OC)c3)cc(C(F)(F)F)n2n1 | – | inactive: 3.53%
COCCC(C(=O)Oc1c(C(C)(C)C)cc(C)cc1C(C)(C)C)c1ccccc1 (centres undefined) | inconclusive [inhibitor, single point] | –
